# Results published in paper PMC9911399, “Two distinct binding modes provide the RNA-binding protein RbFox with extraordinary sequence specificity”.
# Positions count from the first letter of the chain named. The list shows a part of the results.
# B1: UCACUAC (DNA:RNA)
# RNA: GGGAGACCGGAAUUCAGAUUGUCCUCACUACUUAAAUCCCGUCGUAGCCACCA
# DNA 1: CAATCTGAATTCCGGTCTCCC
# DNA 2: TGGTGGCTACGACGGGATT
# B2: AUAUCCC (DNA:RNA)
# RNA: B1 RNA with U25A, C26U, C28U, U29C, A30C
# DNA 1: CAATCTGAATTCCGGTCTCCC
# DNA 2: TGGTGGCTACGACGGGATT
# B3: CCGAUAA (DNA:RNA)
# RNA: B1 RNA with U25C, A27G, C28A, C31A
# DNA 1: CAATCTGAATTCCGGTCTCCC
# DNA 2: TGGTGGCTACGACGGGATT
# B4: UGAACUC (DNA:RNA)
# RNA: B1 RNA with C26G, C28A, U29C, A30U
# DNA 1: CAATCTGAATTCCGGTCTCCC
# DNA 2: TGGTGGCTACGACGGGATT
# B5: UUAGAUA (DNA:RNA)
# RNA: B1 RNA with C26U, C28G, U29A, A30U, C31A
# DNA 1: CAATCTGAATTCCGGTCTCCC
# DNA 2: TGGTGGCTACGACGGGATT
# B6: GUAGUCU (DNA:RNA)
# RNA: B1 RNA with U25G, C26U, C28G, A30C, C31U
# DNA 1: CAATCTGAATTCCGGTCTCCC
# DNA 2: TGGTGGCTACGACGGGATT
# B7: UCUCUAC (DNA:RNA)
# RNA: B1 RNA with A27U
# DNA 1: CAATCTGAATTCCGGTCTCCC
# DNA 2: TGGTGGCTACGACGGGATT
# B8: CUACUGG (DNA:RNA)
# RNA: B1 RNA with U25C, C26U, A30G, C31G
# DNA 1: CAATCTGAATTCCGGTCTCCC
# DNA 2: TGGTGGCTACGACGGGATT
# B9: ACAUGUA (DNA:RNA)
# RNA: B1 RNA with U25A, C28U, U29G, A30U, C31A
# DNA 1: CAATCTGAATTCCGGTCTCCC
# DNA 2: TGGTGGCTACGACGGGATT
# B10: CGAACUA (DNA:RNA)
# RNA: B1 RNA with U25C, C26G, C28A, U29C, A30U, C31A
# DNA 1: CAATCTGAATTCCGGTCTCCC
# DNA 2: TGGTGGCTACGACGGGATT
# B11: AUUGAGU (DNA:RNA)
# RNA: GGGAGACCGGAAUUCAGAUUGUCCAUUGAGUUUAAAUCCCGUCGUAGCCACCA
# DNA 1: CAATCTGAATTCCGGTCTCCC
# DNA 2: TGGTGGCTACGACGGGATT
# B12: UAAUCUU (DNA:RNA)
# RNA: B1 RNA with C26A, C28U, U29C, A30U, C31U
# DNA 1: CAATCTGAATTCCGGTCTCCC
# DNA 2: TGGTGGCTACGACGGGATT
# B13: UACCAAG (DNA:RNA)
# RNA: B1 RNA with C26A, A27C, U29A, C31G
# DNA 1: CAATCTGAATTCCGGTCTCCC
# DNA 2: TGGTGGCTACGACGGGATT
# B14: UAUUAAC (DNA:RNA)
# RNA: B1 RNA with C26A, A27U, C28U, U29A
# DNA 1: CAATCTGAATTCCGGTCTCCC
# DNA 2: TGGTGGCTACGACGGGATT
# B15: AAUGAAU (DNA:RNA)
# RNA: B11 RNA with U26A, G30A
# DNA 1: CAATCTGAATTCCGGTCTCCC
# DNA 2: TGGTGGCTACGACGGGATT
# B16: UUCUGGU (DNA:RNA)
# RNA: B11 RNA with A25U, U27C, G28U, A29G
# DNA 1: CAATCTGAATTCCGGTCTCCC
# DNA 2: TGGTGGCTACGACGGGATT
# B17: GGGGAAU (DNA:RNA)
# RNA: B11 RNA with A25G, U26G, U27G, G30A
# DNA 1: CAATCTGAATTCCGGTCTCCC
# DNA 2: TGGTGGCTACGACGGGATT
# B18: AGCAGUG (DNA:RNA)
# RNA: B11 RNA with U26G, U27C, G28A, A29G, G30U, U31G
# DNA 1: CAATCTGAATTCCGGTCTCCC
# DNA 2: TGGTGGCTACGACGGGATT
# B19: UGGCCUC (DNA:RNA)
# RNA: B1 RNA with C26G, A27G, U29C, A30U
# DNA 1: CAATCTGAATTCCGGTCTCCC
# DNA 2: TGGTGGCTACGACGGGATT
# B20: AGAACAC (DNA:RNA)
# RNA: B1 RNA with U25A, C26G, C28A, U29C
# DNA 1: CAATCTGAATTCCGGTCTCCC
# DNA 2: TGGTGGCTACGACGGGATT
# B21: UCCUCCU (DNA:RNA)
# RNA: B1 RNA with A27C, C28U, U29C, A30C, C31U
# DNA 1: CAATCTGAATTCCGGTCTCCC
# DNA 2: TGGTGGCTACGACGGGATT
# B22: CUUUUCC (DNA:RNA)
# RNA: B11 RNA with A25C, G28U, A29U, G30C, U31C
# DNA 1: CAATCTGAATTCCGGTCTCCC
# DNA 2: TGGTGGCTACGACGGGATT
# B23: AGGAGCC (DNA:RNA)
# RNA: B11 RNA with U26G, U27G, G28A, A29G, G30C, U31C
# DNA 1: CAATCTGAATTCCGGTCTCCC
# DNA 2: TGGTGGCTACGACGGGATT
# B24: AGCGCGA (DNA:RNA)
# RNA: B11 RNA with U26G, U27C, A29C, U31A
# DNA 1: CAATCTGAATTCCGGTCTCCC
# DNA 2: TGGTGGCTACGACGGGATT
# B25: CUCAUGU (DNA:RNA)
# RNA: B11 RNA with A25C, U27C, G28A, A29U
# DNA 1: CAATCTGAATTCCGGTCTCCC
# DNA 2: TGGTGGCTACGACGGGATT
# B26: UAACCAC (DNA:RNA)
# RNA: B1 RNA with C26A, U29C
# DNA 1: CAATCTGAATTCCGGTCTCCC
# DNA 2: TGGTGGCTACGACGGGATT
# B27: UCAGCCU (DNA:RNA)
# RNA: B1 RNA with C28G, U29C, A30C, C31U
# DNA 1: CAATCTGAATTCCGGTCTCCC
# DNA 2: TGGTGGCTACGACGGGATT
# B28: UGGGUUU (DNA:RNA)
# RNA: B11 RNA with A25U, U26G, U27G, A29U, G30U
# DNA 1: CAATCTGAATTCCGGTCTCCC
# DNA 2: TGGTGGCTACGACGGGATT
# B29: CGCGUUU (DNA:RNA)
# RNA: B11 RNA with A25C, U26G, U27C, A29U, G30U
# DNA 1: CAATCTGAATTCCGGTCTCCC
# DNA 2: TGGTGGCTACGACGGGATT
# B30: CCUCUGU (DNA:RNA)
# RNA: B11 RNA with A25C, U26C, G28C, A29U
# DNA 1: CAATCTGAATTCCGGTCTCCC
# DNA 2: TGGTGGCTACGACGGGATT
# B31: AGCGUCA (DNA:RNA)
# RNA: B11 RNA with U26G, U27C, A29U, G30C, U31A
# DNA 1: CAATCTGAATTCCGGTCTCCC
# DNA 2: TGGTGGCTACGACGGGATT
# Target: T1, RBFOX1 RRM (Homo sapiens, UniProt Q9NWB1 109-208)
# T1 sequence: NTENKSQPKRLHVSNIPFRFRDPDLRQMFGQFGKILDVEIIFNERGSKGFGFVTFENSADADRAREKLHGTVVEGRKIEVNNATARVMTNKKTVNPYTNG
# Assay: EMSA; HiTS-Eq, 1 nM pool, 10 min; buffer printed only for the single-RNA assays: 10 mM Tris pH 7.5, 150 mM NaCl, 3.4 mM EDTA, 0.001% NP-40, 30 C
# Conditions: tags: His6 N-terminal (pET28a); label: 5' 32P
# Outline: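 Purified RbFox RRM (wild type or mutant) was equilibrated for 10 min in 50 µL with 1 nM of a 5′-radiolabelled pool of RNA with 7 randomized nucleotides, its flanks annealed to DNA oligonucleotides, across increasing protein concentrations. Free RNA was separated by 8% native PAGE, excised, reverse-transcribed, PCR-barcoded and sequenced on an Illumina HiSeq 2500. Relative association constants came from read-count changes of each variant against the control reaction, normalised to the cognate motif.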
row,Binder,binding signal
1,B1,0.000713 KA relative to UGCAUGU
2,B2,0.0036 KA relative to UGCAUGU
3,B3,0.00237 KA relative to UGCAUGU
4,B4,0.00633 KA relative to UGCAUGU
5,B5,0.00796 KA relative to UGCAUGU
6,B6,0.0147 KA relative to UGCAUGU
7,B7,0.0026 KA relative to UGCAUGU
8,B8,0.0108 KA relative to UGCAUGU
9,B9,0.002 KA relative to UGCAUGU
10,B10,0.00269 KA relative to UGCAUGU
11,B11,0.0102 KA relative to UGCAUGU
12,B12,0.00684 KA relative to UGCAUGU
13,B13,0.00503 KA relative to UGCAUGU
14,B14,0.0111 KA relative to UGCAUGU
15,B15,0.0102 KA relative to UGCAUGU
16,B16,0.0132 KA relative to UGCAUGU

row,Binder,binding signal
1,B17,0.0354 KA relative to UGCAUGU
2,B18,0.0135 KA relative to UGCAUGU
3,B19,0.0279 KA relative to UGCAUGU
4,B20,0.00173 KA relative to UGCAUGU
5,B21,0.00614 KA relative to UGCAUGU
6,B22,0.00556 KA relative to UGCAUGU
7,B23,0.0149 KA relative to UGCAUGU
8,B24,0.0118 KA relative to UGCAUGU
9,B25,0.00582 KA relative to UGCAUGU
10,B26,0.00231 KA relative to UGCAUGU
11,B27,0.00721 KA relative to UGCAUGU
12,B28,0.0379 KA relative to UGCAUGU
13,B29,0.0129 KA relative to UGCAUGU
14,B30,0.0147 KA relative to UGCAUGU
15,B31,0.00417 KA relative to UGCAUGU
